About 230 (0.21%) of roughly 110,000 compounds showed an effect of 50% or more. Some of the results follow.
Biological target: DPAP1 (Plasmodium falciparum, UniProt Q8IIJ9)
Assay: primary screen, percent inhibition; read by cleavage of a fluorogenic dipeptide substrate; higher = more effect of the substance
Parameters: species or system P. falciparum D10 trophozoite lysates; single well
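Also: 30 min substrate incubation versus DMSO and 10 µM JCP410 controls.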

Chain of DPAP1 (Q8IIJ9 whole entry, looked up): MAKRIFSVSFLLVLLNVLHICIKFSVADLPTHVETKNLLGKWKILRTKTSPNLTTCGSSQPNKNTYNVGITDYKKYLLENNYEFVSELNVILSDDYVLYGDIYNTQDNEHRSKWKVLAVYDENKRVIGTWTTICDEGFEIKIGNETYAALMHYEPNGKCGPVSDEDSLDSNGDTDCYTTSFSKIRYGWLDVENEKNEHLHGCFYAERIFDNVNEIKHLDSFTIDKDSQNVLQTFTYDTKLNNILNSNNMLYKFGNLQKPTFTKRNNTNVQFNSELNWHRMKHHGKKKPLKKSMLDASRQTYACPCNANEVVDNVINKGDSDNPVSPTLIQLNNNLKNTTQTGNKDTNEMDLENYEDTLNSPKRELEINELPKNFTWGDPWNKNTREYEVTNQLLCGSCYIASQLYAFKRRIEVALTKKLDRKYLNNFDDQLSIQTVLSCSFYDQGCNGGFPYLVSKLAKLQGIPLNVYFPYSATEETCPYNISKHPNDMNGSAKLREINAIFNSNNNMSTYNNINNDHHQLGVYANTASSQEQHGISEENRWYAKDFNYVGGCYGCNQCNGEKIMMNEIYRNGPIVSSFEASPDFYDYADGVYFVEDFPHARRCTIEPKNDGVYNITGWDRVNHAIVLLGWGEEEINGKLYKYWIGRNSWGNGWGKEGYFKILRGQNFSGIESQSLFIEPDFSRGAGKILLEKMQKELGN

Row | SMILES | % Inhibition @ 10 uM [%]
1 | Nc1c(C(=O)c2ccccc2)sc2nc3c(cc12)CCCC3 | 1.41
2 | CNCCc1ccccc1Sc1ccccc1 | 1.4
3 | Cc1c(C(=O)Nc2sc3c(c2C(=O)NC2CCS(=O)(=O)C2)CCCC3)oc2ccccc12 (stereo not drawn) | -4.52
4 | Cc1ccccc1-n1c(SCC(=O)NCc2ccccc2)nc2nnc(C)c-2c1N | 7.3
5 | COc1ccc(CC(C)N(C)C2CCN(C)CC2)cc1OC (stereo not drawn) | -1.5
6 | COc1ccc(CC(=O)Nc2cc(C)ccn2)cc1OC | -6.81
7 | O=S(=O)(Nc1nc2ccccc2s1)c1ccc2ccccc2c1 | 5.24
8 | COc1ccc(CCNC(=O)c2c(-c3ccccc3Cl)noc2C)cc1 | -7.22
9 | CCc1ccc(-c2nc(CSCC(=O)NCCCN3CCCC3=O)c(C)o2)cc1 | 0.689
10 | CCC(=O)N1CCN(c2ccc(NCc3ccccc3)cc2)CC1 | -16.4
11 | Cn1nc(C(F)(F)F)cc1C(=O)Nc1ccc(S(=O)(=O)N2CCCC2)cc1 | -0.171
12 | Cc1ccc(-n2nc3c(=O)n(CCCC(=O)N4CCOCC4)nc(C)c3c2C)cc1 | -2.87
13 | C=CCn1c(SCC(=O)O)nc2sc3c(c2c1=O)CCCC3 | -1.93
14 | Cc1cc(C)n(C(=O)CCCN2C(=O)c3cccc4cccc(c34)C2=O)n1 | -1.4
15 | Cc1ccccc1-c1nc(CS(=O)(=O)CC(=O)NCCCN2CCOCC2)c(C)o1 | -3.7
16 | CCNC(=O)/C(=C\c1ccccc1)NC(=O)c1ccccc1Br | -2.64
17 | CCOP(=O)(CN1CCCCC1)OCC | -3.85
18 | Cc1ccc2ncc(NC(=O)N(C)Cc3ccccc3)c(O)c2c1 | -1.29
19 | Clc1ccccc1CN1CCN(c2ncccn2)CC1 | 3.9
20 | O=C(NCCCN1CCOCC1)c1[nH]c2ccccc2c1Sc1ccc(Cl)cc1 | -8.23
21 | CC(C)(C)c1ccc(C(=O)NC(Cc2c(F)cccc2F)C(=O)NCC#N)cc1 (stereo not drawn) | -1.41
22 | COc1ccccc1N1CCN(C(=O)C23CC4CC(CC(C4)C2)C3)CC1 | -0.591
23 | O=C(Cc1ccc(F)cc1)Nc1cccc2cccnc12 | 4.31
24 | O=C(Nc1ccncc1)c1ccc(NS(=O)(=O)c2cccc(F)c2)cc1 | -5.26
25 | CC(=O)c1c(C)c2c(n1CCN(C)C)CCCC2 | 3.54

Row | SMILES | % Inhibition @ 10 uM [%]
26 | CCCNC(=O)C(N)Cc1c[nH]c2ccccc12 (stereo not drawn) | -3.21
27 | COc1ccc(C(CC(=O)O)NC(=O)C2CCCCC2)cc1 (stereo not drawn) | -1.47
28 | CCc1ccc(CNC(=O)C2CCCN(c3nc4ccccc4o3)C2)cc1 (stereo not drawn) | -3.12
29 | CCOC(=O)c1sc2ncn3c(-c4ccco4)nnc3c2c1C | -1.17
30 | CC(C)C[C@H](NC(=O)OCc1ccc(OC(F)(F)F)cc1)C(=O)NCC#N | 3.19
31 | COCCO/C(O)=C1\C(C)=NC2=C(C(=O)CC(c3ccc(Cl)cc3)C2)C1c1ccccc1F (stereo not drawn) | 1.67
32 | COc1ccc(C(=O)NCC2(c3ccccc3)CCCC2)cc1 | -1.02
33 | COCCCn1c(=O)c2sccc2n2c(CCCC(=O)NCCNC(C)=O)nnc12 | -2.15
34 | N#CCNC(=O)[C@H](Cc1cc(I)c(O)c(I)c1)NC(=O)N1CCOCC1 | -6.46
35 | O=C(NCC12CC3CC(CC(C3)C1)C2)c1cc(-c2ccc(F)cc2)no1 | -2.07
36 | Cc1cccc2c3nn4cn[nH]c4nc-3nc12 | -6.44
37 | Cc1ccsc1C1CC(=O)Oc2c1c(=O)oc1ccccc21 (stereo not drawn) | -0.0108
38 | O=C(COc1ccc(F)cc1)Nc1nn2c(-c3ccccc3)nnc2s1 | -2.48
39 | COc1ccc(OCC(O)CN2CCN(c3ccccc3)CC2)cc1 (stereo not drawn) | -6.36
40 | Cc1nnc2c(Oc3ccc(-c4ccccc4)cc3)nc3ccccc3n12 | -7.23
41 | COc1ccc(OC)c(C2CC(=O)Nc3c2c(C)nn3-c2nc3ccccc3s2)c1 (stereo not drawn) | -1.11
42 | CC(=O)c1c(O)cc(C)o/c1=N\Cc1ccco1 | 0.674
43 | COCCNC(=O)c1nn2c(C(F)(F)F)cc(-c3ccc(Br)cc3)nc2c1Cl | -5
44 | O=c1cc(CSCc2ccc(Cl)cc2)nc2scc(-c3ccccc3)n12 | -2.19
45 | Cc1ccc(NC(=O)c2cccc(OC(F)F)c2)c(C)c1 | -1.84
46 | CCOC(=O)CCNC(=O)c1ccccc1 | 2.62
47 | COc1ccc(Br)cc1CNCc1ccc(OC)c(OC)c1 | -5.26
48 | Cc1nc(N2CCOCC2)c2oc3ccccc3c2n1 | -0.28
49 | Cc1cccc(OCC(=O)Nc2ccc(S(=O)(=O)N(C)Cc3ccccc3)cc2)c1 | 2.05
50 | COc1ccc(C(=O)NCc2nnc(SCC(=O)c3ccc(Cl)cc3)o2)cc1 | -1.58

Row | SMILES | % Inhibition @ 10 uM [%]
51 | COc1ccc(C(=O)Nc2ccc(OC(C)C)cc2)cc1 | -1.76
52 | O=C(CNC(=S)N(Cc1ccccc1F)C1CCCCC1)N1CCCC1 | 4.47
53 | Cc1ccc(OCC(=O)Nc2ccc(CN3CCOCC3)cc2)c(C)c1 | 0.528
54 | COc1ccc(/C=C2\CS/C(=C\c3ccc(OC)c(Cn4cccn4)c3)C2=O)cc1Cn1cccn1 | 2.35
55 | COc1cccc(NC(=O)c2cccc(C)c2)c1 | 2.13
56 | CCc1ccc(NC2=NC(=O)/C(=C\c3ccc(OCC#N)cc3)S2)cc1 | -0.473
57 | COc1ccc(C2=N/C(=C/c3ccccc3F)C(=O)O2)cc1Br | 4.7
58 | COc1ccc(OCC(=O)Nc2ccc(S(=O)(=O)N3CCC(C)CC3)cc2)cc1 | -3.78
59 | Cc1ccc(OCCn2c(=O)oc3ccc(C)cc32)cc1 | -3.16
60 | COc1cccc(CN2CCCN(C)CC2)c1 | -0.192
61 | CCOc1ccc(C(=O)NC2C3CC4CC(C3)CC2C4)cc1 (stereo not drawn) | -9.2
62 | O=C(Nc1ccc(Cl)cc1C(=O)Nc1ccncc1)c1ccco1 | 1.27
63 | CC(=O)Nc1ccc(S(=O)(=O)Nc2cccc(C(=O)Nc3cccc(Cl)c3)c2)cc1 | -15.9
64 | CCOc1ccc(C(=O)N2CCN(c3ccccc3OC)CC2)cc1 | -2.22
65 | CCC[C@@H](/C=C/S(=O)(=O)c1ccccc1)NC(=O)[C@H](Cc1c(F)cccc1F)NC(=O)c1ccc(-c2ccccc2Cl)cc1 | 2.87
66 | COc1ccc2[nH]c3c(=O)n(Cc4ccc(C(=O)NCc5cccnc5)cc4)c(=S)[nH]c3c2c1 | 2.74
67 | CCOc1cc(CO)cc(Br)c1OCc1ccc(C(=O)O)cc1 | 1.7
68 | Cc1nn(CC(=O)NCc2cccnc2)c(C)c1Cl | 0.883
69 | CCOc1cccc(N2C(=O)CC(N3CCCCC3)C2=O)c1 (stereo not drawn) | 0.35
70 | CCOC(=O)c1[nH]c(O)nc1CSc1nc(C)cc(C)n1 | 12.3
71 | COc1ccccc1-c1cc(C(=O)NCc2ccccn2)c2ccccc2n1 | 0.144
72 | COc1ccc(/C=C\C(=O)Nc2c3c(nn2-c2ccc(C)cc2)CSC3)cc1OC | 10.1
73 | Cc1ccc(OCC(=O)Nc2cnn(Cc3ccccc3)c2)cc1 | -3.05
74 | Clc1cccc(CN2CCN(C/C=C/c3ccccc3)CC2)c1Cl | 0.605
75 | O=C(Nc1cccc2ccccc12)C1CC1(c1ccccc1)c1ccccc1 (stereo not drawn) | 1.24

Row | SMILES | % Inhibition @ 10 uM [%]
76 | CC(=O)C1=C(C)NC(SCc2ccccc2)=C(C#N)C1c1ccccc1 (stereo not drawn) | 3.06
77 | CCCCOc1ccc(S(=O)(=O)NCc2ccco2)cc1 | 4.1
78 | CC(C)C[C@H](NS(=O)(=O)c1ccccc1F)C(=O)NCC#N | -4.72
79 | O=C(CNC(=S)N(Cc1ccccc1)Cc1ccccc1F)NCc1ccccc1 | -0.733
80 | Cc1ccccc1N1CCN(Cc2ccc(F)cc2F)CC1 | 1.63
81 | Cc1sc2c(c1C)c(=O)n(Cc1ccccc1)c(=O)n2CC(=O)NCCC1=CCCCC1 | 15.1
82 | Cc1cccc(CCNC(=O)c2ccc(CNc3c(N4CCC(C)CC4)c(=O)c3=O)cc2)c1 | 16.4
83 | N#Cc1cc2c(N)c(C(=O)c3ccc(Br)cc3)sc2nc1N | 2.7
84 | NS(=O)(=O)c1ccc(CCNC(=O)c2cc3c(Cl)nc4ccccc4c3s2)cc1 | -3.37
85 | N#CCNC(=O)C(CC1CCCCC1)C(=O)NCC#N | -0.214
86 | O=C(N[C@H](/C=C/S(=O)(=O)c1ccccc1)CCc1ccccc1)[C@H](CS(=O)(=O)Cc1ccccc1OC(F)F)NC(=O)N1CCOCC1 | -6.98
87 | Cc1nn(-c2ccc(F)cc2)c(-n2cccc2)c1C(=O)NCCC(C)C | -6.49
88 | CCC(C)NC(=O)C1CCN(c2cc(C)nc3c(-c4ccc(Cl)cc4)c(C)nn23)CC1 (stereo not drawn) | -3.7
89 | O=C1NC(=O)N(c2cccc3ccccc23)C(=O)/C1=C\c1ccccc1 | -4.23
90 | O=C(c1ccc(S(=O)(=O)c2ccccc2)cc1)N1CCCCCC1 | -0.597
91 | CCCNC(=O)c1ccc2c(c1)sc1nc(-c3ccc(C)cc3C)cn12 | -5.42
92 | O=C(NCCc1nc2ccccc2n1Cc1ccccc1Cl)c1ccco1 | 2.02
93 | COc1ccccc1CNC(=O)C1CCN(c2nnc(N3CCCC3=O)s2)CC1 | 5.42
94 | COc1ccc(CNC(=O)CCN2C(=S)NC(C)(C)CC2C)cc1 (stereo not drawn) | -4.23
95 | CC1CCCC(NS(=O)(=O)c2ccc(CN3C(=O)c4cccnc4C3=O)cc2)C1C (stereo not drawn) | 4.79
96 | CCN(CC)C(=O)Cn1cc(C(=O)C(F)(F)F)c2ccc(C(=O)OC)cc21 | 0.64
97 | O=C(CN1CCN(c2ccccc2)CC1)Nc1cc(C(F)(F)F)cc(C(F)(F)F)c1 | 5.51
98 | c1ccc(CN2CCN(c3ncnc4scc(-c5ccccc5)c34)CC2)cc1 | 4.99
99 | COc1ccc(/C=C2\SC(=O)N(CCOc3ccc(F)cc3)C2=O)c(OC)c1 | -1.28
